# This is one part of the list.
# Experiments:
# Assay in all cases: glycan array binding signal (z-score within array); higher = stronger binding
# Conditions in all cases: glycan notation: IUPAC condensed, linker removed
# [1] = biological target: Gal(a1-4)GlcNAc
# Outline: (§1)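 Glycan array data came from 3228 arrays in the Consortium for Functional Glycomics database, and only arrays with an available protein sequence were kept. Glycan names were put into IUPAC-condensed notation, and columns mapping to the same glycan were averaged. The binding signal is a within-array Z-score, averaged across arrays of one protein sequence run at different concentrations or buffers and across linkers. A negative Z-score can be read as non-binding.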
# [2] = biological target: Gal(a1-6)Glc
# Outline: as §1
# [3] = biological target: Gal(b1-2)Gal
# Outline: as §1
# [4] = biological target: Gal(b1-3)Gal
# Outline: as §1
# [5] = biological target: Gal(b1-3)GalNAc
# Outline: as §1
# [6] = biological target: Gal(b1-3)GalNAc(b1-3)Gal(a1-4)Gal(b1-4)Glc
# Outline: as §1
# [7] = biological target: Gal(b1-3)GalNAc(b1-3)Gal(b1-4)Glc
# Outline: as §1
# [8] = biological target: Gal(b1-3)GalNAc(b1-3)Gal(b1-4)GlcNAc
# Outline: as §1
# [9] = biological target: Gal(b1-3)GalNAc(b1-4)Gal(b1-4)Glc
# Outline: as §1
# [10] = biological target: Gal(b1-3)GalNAc(b1-4)[Neu5Ac(a2-3)]Gal(b1-4)Glc
# Outline: as §1
# [11] = biological target: Gal(b1-3)[Fuc(a1-4)]GlcNAc
# Outline: as §1
# [12] = biological target: Gal(b1-3)[Fuc(a1-4)]GlcNAc(b1-3)Gal(b1-4)GlcNAc
# Outline: as §1
# [13] = biological target: Gal(b1-3)[Fuc(a1-4)]GlcNAc(b1-3)Gal(b1-4)[Fuc(a1-3)]GlcNAc
# Outline: as §1
# [14] = biological target: Gal(b1-3)[GlcNAc(b1-6)]GalNAc
# Outline: as §1
# [15] = biological target: Gal(b1-3)[GlcNAc(b1-6)]GlcNAc
# Outline: as §1
# [16] = biological target: Gal(b1-3)[Neu5Ac(a2-6)]GalNAc
# Outline: as §1
# [17] = biological target: Gal(b1-3)[Neu5Ac(a2-6)]GlcNAc
# Outline: as §1
# [18] = biological target: Gal(b1-3)[Neu5Ac(a2-6)]GlcNAc(a1-4)Gal(b1-4)Glc
# Outline: as §1
# [19] = biological target: Gal(b1-3)[Neu5Ac(b2-6)]GlcNAc
# Outline: as §1
# [20] = biological target: Gal(b1-4)GalNAc(a1-3)[Fuc(a1-2)]Gal(b1-4)GlcNAc
# Outline: as §1
# [21] = biological target: Gal(b1-4)GalNAc(b1-3)[Fuc(a1-2)]Gal(b1-4)GlcNAc
# Outline: as §1
# [22] = biological target: Gal(b1-4)Glc
# Outline: as §1
# [23] = biological target: Gal(b1-4)Glc6S
# Outline: as §1
# [24] = biological target: Gal(b1-4)GlcNAc
# Outline: as §1
# [25] = biological target: Gal(b1-4)GlcNAc(b1-2)Man(a1-3)[Gal(b1-4)GlcNAc(b1-2)Man(a1-6)]Man(b1-4)GlcNAc(b1-4)GlcNAc
# Outline: as §1
# [26] = biological target: Gal(b1-4)GlcNAc(b1-3)Gal(b1-4)Glc
# Outline: as §1
# [27] = biological target: Gal(b1-4)GlcNAc(b1-3)Gal(b1-4)GlcNAc
# Outline: as §1
# [28] = biological target: Gal(b1-4)GlcNAc(b1-3)Gal(b1-4)GlcNAc(b1-3)Gal(b1-4)GlcNAc
# Outline: as §1
# [29] = biological target: Gal(b1-4)GlcNAc(b1-3)Gal(b1-4)[Fuc(a1-3)]GlcNAc(b1-3)Gal(b1-4)[Fuc(a1-3)]GlcNAc
# Outline: as §1
# [30] = biological target: Gal(b1-4)GlcNAc(b1-3)GalNAc
# Outline: as §1
# [31] = biological target: Gal(b1-4)GlcNAc(b1-3)[Gal(b1-4)GlcNAc(b1-6)]GalNAc
# Outline: as §1
# [32] = biological target: Gal(b1-4)GlcNAc(b1-6)GalNAc
# Outline: as §1
# [33] = biological target: Gal(b1-4)GlcNAc(b1-6)[Gal(b1-3)]GalNAc
# Outline: as §1
# [34] = biological target: Gal(b1-4)GlcNAc(b1-6)[Gal(b1-3)]GlcNAc
# Outline: as §1
# [35] = biological target: Gal3S(b1-3)GalNAc
# Outline: as §1
# [36] = biological target: Gal3S(b1-3)GlcNAc
# Outline: as §1
# [37] = biological target: Gal3S(b1-3)[Fuc(a1-4)]GlcNAc
# Outline: as §1
# [38] = biological target: Gal3S(b1-4)Glc
# Outline: as §1
# [39] = biological target: Gal3S(b1-4)Glc6S
# Outline: as §1
# [40] = biological target: Gal3S(b1-4)GlcNAc
# Outline: as §1
# [41] = biological target: Gal3S(b1-4)GlcNAc6S
# Outline: as §1
# [42] = biological target: Gal3S6S(b1-4)GlcNAc
# Outline: as §1
# [43] = biological target: Gal3S6S(b1-4)GlcNAc6S
# Outline: as §1
# [44] = biological target: Gal4S(b1-4)GlcNAc
# Outline: as §1
# [45] = biological target: Gal4S6S(b1-4)GlcNAc
# Outline: as §1
binder,measurement,setting,value
RNase 1 (Homo sapiens) (protein) KESRAKKFQRQHMDSDSSPSSSSTYCNQMMRRRNMTQGRCKPVNTFVHEPLVDVQNVCFQEKVTCKNGQGNCYKSNSSMHITDCRLTNGSRYPNCAYRTSPKERHIIVACEGSPYVPVHFDASVEDST,glycan array binding signal (z-score),[1],-0.225
same,glycan array binding signal (z-score),[2],0.634
same,glycan array binding signal (z-score),[3],0
same,glycan array binding signal (z-score),[4],-0.006
same,glycan array binding signal (z-score),[5],-0.191
same,glycan array binding signal (z-score),[6],0.495
same,glycan array binding signal (z-score),[7],0.641
same,glycan array binding signal (z-score),[8],-0.176
same,glycan array binding signal (z-score),[9],-0.202
same,glycan array binding signal (z-score),[10],0.026
same,glycan array binding signal (z-score),[11],-0.204
same,glycan array binding signal (z-score),[12],-0.135
same,glycan array binding signal (z-score),[13],-0.114
same,glycan array binding signal (z-score),[14],-0.236
same,glycan array binding signal (z-score),[15],-0.197
same,glycan array binding signal (z-score),[16],-0.232
same,glycan array binding signal (z-score),[17],-0.195
same,glycan array binding signal (z-score),[18],0.379
same,glycan array binding signal (z-score),[19],-0.224
same,glycan array binding signal (z-score),[20],-0.115
same,glycan array binding signal (z-score),[21],-0.218
same,glycan array binding signal (z-score),[22],-0.073
same,glycan array binding signal (z-score),[23],-0.14
same,glycan array binding signal (z-score),[24],-0.196
same,glycan array binding signal (z-score),[25],-0.171
same,glycan array binding signal (z-score),[26],0.369
same,glycan array binding signal (z-score),[27],-0.165
same,glycan array binding signal (z-score),[28],-0.224
same,glycan array binding signal (z-score),[29],-0.101
same,glycan array binding signal (z-score),[30],-0.22
same,glycan array binding signal (z-score),[31],-0.216
same,glycan array binding signal (z-score),[32],-0.221
same,glycan array binding signal (z-score),[33],-0.205
same,glycan array binding signal (z-score),[34],-0.197
same,glycan array binding signal (z-score),[35],-0.186
same,glycan array binding signal (z-score),[36],-0.127
same,glycan array binding signal (z-score),[37],-0.179
same,glycan array binding signal (z-score),[38],-0.184
same,glycan array binding signal (z-score),[39],-0.033
same,glycan array binding signal (z-score),[40],-0.17
same,glycan array binding signal (z-score),[41],-0.098
same,glycan array binding signal (z-score),[42],-0.091
same,glycan array binding signal (z-score),[43],-0.178
same,glycan array binding signal (z-score),[44],0.34
same,glycan array binding signal (z-score),[45],-0.035

# Source: the supplement of paper PMC8728848
